Experimental data published in the supplement of paper PMC10126150.
Values marked as one replicate rest on one cluster of the flow cell; about a third of the high ones do not repeat.

Tested on: ATP
Assay: switch fluorescence ratio, 500 uM ATP over buffer (Cy3 cluster intensity, sum of 5 cycles each) (fold (ratio)); higher = stronger signal-on switching upon ATP binding; sequences stand for … in TCGTCGGCAGCGTCAGATGTGTATAAGAGACAGTTTTTTTTTTTTTTTTTTTTTTTTT…TC
Conditions: aptamer strand: ATP DNA aptamer (quencher-CACCTGGGGGAGTATTGCGGAGGAAGG + anchor), 100 nM annealed; ATP concentration: 500 uM; one replicate
How it was run: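 Per cluster, summed Cy3 intensity from the target cycles was divided by that from the buffer cycles to give the fluorescence ratio, then averaged per switch-domain sequence. Clusters outside 100-1000 RFU were excluded. The Cy3-labelled switching-strand clusters, on a modified Illumina MiSeq flow-cell, were annealed to 100 nM quencher-labelled ATP aptamer and imaged in selection buffer, then after 15 min with 500 uM ATP at 22 °C, for five cycles with NaOH stripping and re-annealing between them.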
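Further: ATP exposure 15 min at 22 °C before imaging.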

Row | Sequence | switch fluorescence ratio
1 | GTTCTGTTAG | 1.01
2 | ACATTCAACT | 1.02
3 | GGAATATAAT | 1.01
4 | TTAACGACGG | 1.04
5 | CGCGTAGCGA | 1.01
6 | TGGCCAACTC | 1.13
7 | TTTCTGCGTA | 1.01
8 | GGGCTCCTGG | 1.01
9 | TGTCATGCTA | 1
10 | CAAGTTTAGT | 0.995
11 | GGCAGAGGCC | 1.04
12 | TTGGTGATAT | 1.05
13 | GTTTATCCGG | 0.98
14 | GCAATTCGCA | 1.07
15 | AAATAGCTT | 0.982
16 | AGATACCCGG | 1.03
17 | TAAATACATG | 0.967
18 | AACTCATGGA | 0.995
19 | GCGCTTATCG | 1.02
20 | GCGTATCGGG | 1.02
21 | TGACATATTT | 0.99
22 | GTGCCAAAAT | 1.04
23 | TGCACGAGTT | 1.01
24 | CTGTTTTCTC | 0.961
25 | TCGCTGCAGT | 1.37
26 | TTGCGTATCA | 0.965

Row | Sequence | switch fluorescence ratio
27 | GGCACTAGGA | 1.08
28 | CAAGGAGGTG | 1.05
29 | ATGCTCAGCG | 1.01
30 | GAGAGCTCTC | 1.04
31 | AACATGGTGT | 1.03
32 | TATAGGGCAG | 1.01
33 | AACCTATACT | 1.32
34 | CGACGGGTCT | 1.05
35 | GGCTGATTTT | 1.01
36 | GCAGTTTACG | 0.986
37 | TGGGATTCAG | 1.02
38 | ATAACGTTAC | 1.6
39 | GAGTCCCGG | 1.01
40 | CTATATTATG | 1.02
41 | TTTGACACAA | 1.98
42 | TGGCTGAGA | 1.01
43 | CCTAAGACGC | 1.08
44 | TAATCATGTT | 0.973
45 | CGCTGAAATG | 1.02
46 | TGTGGTGGAA | 1.02
47 | GGCGACTGCT | 0.958
48 | ATGTGATCG | 1.03
49 | TCGAAGCCAT | 1.06
50 | CGAATATATA | 0.973
51 | GAAACGGTAG | 0.978
52 | CGCGTTTGGA | 0.997

Row | Sequence | switch fluorescence ratio
53 | CTCACAGGAT | 1.06
54 | AGACGTGCCT | 1.06
55 | GGAACGAGCG | 1.02
56 | TATACTATAT | 1.04
57 | TTAATCTG | 1.04
58 | GCCCAATCAT | 0.96
59 | GGTATCGTTC | 1.01
60 | TGGTTCTACA | 1.05
61 | AGCCCGTATC | 1.03
62 | ACTGATGCAA | 1.19
63 | AGCTATTACC | 1.11
64 | ATTTATTCAA | 1.22
65 | CCGTACTTGG | 1.01
66 | TTGGTAAGGC | 0.996
67 | CCTAGTCACC | 1.04
68 | GTTTATTTTG | 1.03
69 | TGGTTGTGTC | 1.03
70 | AGGAGGTGTA | 1
71 | TGTGGCTGG | 0.989
72 | TCGACCGCCT | 1.08
73 | TGCGACCGGC | 1.01
74 | TTAAATTCGG | 1
75 | AAAGAGCCGT | 0.992
76 | TTTGGAGGAC | 1.01
77 | AGCTGGATCT | 1.03
78 | GGGTGGAGCC | 1.02

Row | Sequence | switch fluorescence ratio
79 | TAGCGACGCG | 1
80 | CTGGATCCAC | 1.03
81 | AAGGAATCTT | 0.989
82 | GCTACCAGTG | 1.26
83 | TGCTGGGGCC | 1.02
84 | GAAAATAGCC | 1.1
85 | GCTCGTAGAG | 1
86 | TTGGACTCG | 0.977
87 | TAGAAAATCT | 1
88 | TAACGGGGAT | 1.06
89 | CTTTAAGCAG | 1.08
90 | TTCTGTCTCG | 0.997
91 | CTGTGGGCGA | 0.995
92 | AACCCTGAAA | 0.986
93 | TCCTTGGGGC | 1.03
94 | CAGGCTCAGC | 1.01
95 | CGAATTTTGT | 0.981
96 | TATCGCTGCT | 1.04
97 | CGGCCTCCCA | 1.02
98 | GCACAATCCG | 1.11
99 | GGGACAGTGT | 1.01
100 | GGCGGTTTTC | 1
101 | ATAATGTAGG | 0.963
102 | ATTGGTGGAT | 1.03
103 | TGATTTAACA | 1.02
104 | CGCTCTGGGA | 1.04

Row | Sequence | switch fluorescence ratio
105 | CTCCCTTTGT | 1.02
106 | AGTTCGAAAA | 1.03
107 | AAACGCTTGA | 1.06
108 | GCTATAAGCG | 1.03
109 | TAGTATTGAA | 1
110 | AGTAGTATAA | 1.01
111 | ATCACCAGTT | 1.02
112 | ATTGTACACC | 1.05
113 | GAGGTTGCGA | 0.987
114 | ATCCTGGGGA | 0.999
115 | TAGCCTGG | 0.972
116 | CTAGTGCCGA | 0.942
117 | TATCCAGTAC | 1.18
118 | ATCCTGTTGT | 0.977
119 | ACGAAGAAAT | 1.43
120 | AATAAAACGT | 1.07
121 | CATCCATTGG | 0.996
122 | TTACAAGCTT | 1.03
123 | TTTGTGAGTG | 0.97
124 | AGAAATCGCG | 1
125 | TTTTTGTCTA | 0.997
126 | TGGTGTTACC | 1.04
127 | GGCGGCTGAA | 1.01
128 | GCGTTCAAAG | 0.99
129 | TGTTTGCGTC | 0.98
130 | CAATGAAGTG | 0.977

Row | Sequence | switch fluorescence ratio
131 | ATCCGAAATG | 2.33
132 | ACTAGGATAT | 1.02
133 | CATTGTTGCG | 0.984
134 | ACTCACGAGC | 1.35
135 | TCGACGTGAA | 1.36
136 | ATTAGGGGTA | 1.01
137 | ATATAAGACC | 1.02
138 | TTCTTAATGA | 1.03
139 | TAAGACGAGG | 1
140 | AAAACGTTAG | 1
141 | GCGCACCGCC | 1.01
142 | GTAGGGAGCG | 0.937
143 | GCGTTCTTTA | 0.986
144 | AAGGCAGCCA | 0.991
145 | CAAACAACAA | 0.942
146 | TTCAAAAGCT | 0.997
147 | CCCTGATTGA | 0.951
148 | GCTATTGGAG | 0.94
149 | ATTTGACGAA | 1.02
150 | CGGATATAAT | 0.948
151 | GCGAAGAGG | 0.953
152 | TGAACTGAAT | 1.11
153 | ACCAGGGGAA | 1.02
